Some of the results follow.

The target in this experiment is T1, OsWOX13 (Oryza sativa, UniProt Q5QMM3 1-267).
T1 sequence: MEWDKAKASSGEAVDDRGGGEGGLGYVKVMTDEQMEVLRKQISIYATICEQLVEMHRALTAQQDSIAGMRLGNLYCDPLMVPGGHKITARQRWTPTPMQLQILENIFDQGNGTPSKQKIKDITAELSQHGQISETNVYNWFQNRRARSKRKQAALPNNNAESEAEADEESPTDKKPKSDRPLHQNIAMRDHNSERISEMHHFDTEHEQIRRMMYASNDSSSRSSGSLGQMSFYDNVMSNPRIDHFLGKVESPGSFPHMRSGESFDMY
Description: protein-binding microarray (RPBM); PBS, 2% BSA, 51.3 ng/ul salmon testes DNA, 50 uM zinc acetate, 200 nM TF, 25 C, 1 h; high values mean tight binding. The note with it: protein: recombinant; tags: N-terminal polyhistidine and DsRed monomer fusion (pET32a); label: CyDye5-dUTP incorporated in the synthesized complementary strand; 3' TTTTT single-stranded linker to array surface; dsDNA, one strand shown. A digest of the protocol: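 Transcription factors were each fused at the N-terminus to a polyhistidine tag plus DsRed and expressed in E. coli BL21-CodonPlus before Ni–NTA purification. Binding to a double-stranded custom Agilent array was carried out with 200 nM protein at 25 °C for 1 h in PBS, 2% BSA, salmon testes DNA and 50 µM zinc acetate. The binding signal is per-feature fluorescence intensity, in arbitrary units, on an Axon 4000B scanner.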
For “GATAGATAGATAGATACATACACACAAACATAAGTAGCTACGGAGTCACCTAGTGCAG”, the binding signal is 19100 fluorescence intensity (a.u.). For the sequence “TCATAAATTCAATTTCATCCATTATCCTATTTTAGACTACCGGAGTCACCTAGTGCAG”, the binding signal is 9280 fluorescence intensity (a.u.). In the case of “TTCAATAATTGAGATCCCTTCTCTCTATGTTACTTCCTCCCGGAGTCACCTAGTGCAG”, the binding signal is 24000 fluorescence intensity (a.u.). With “CGTGCGTTTATAGGGGTGACTGCGTGTGTGTAATGAGTGTCGGAGTCACCTAGTGCAG”, the binding signal was 3270 fluorescence intensity (a.u.). Then “AGATTGATTATAGATGAATTGGAGATAGTAGCGGGCTATACGGAGTCACCTAGTGCAG”, with 32100 fluorescence intensity (a.u.); and “TTTAATTTGGGAGTTTGTTTACTGCACATAGAGAAGCTAGCGGAGTCACCTAGTGCAG”, with 10700 fluorescence intensity (a.u.); and “CATCCCTTTTAATTATTTGAGATTAAGTCCTTACCTACTACGGAGTCACCTAGTGCAG”, with 5000 fluorescence intensity (a.u.). On to “CAATTAATCATACGCTAATGGCTCAACTCGTTTTGTGTATCGGAGTCACCTAGTGCAG”, for which the binding signal was 9170 fluorescence intensity (a.u.). For the sequence “CTGATTGATTCGTAATAGTAGAATAGGACATGTTACCATACGGAGTCACCTAGTGCAG”, the binding signal was 64500 fluorescence intensity (a.u.). Take “ATCACATCGTTTTAATTTCAATCAAACTTCCAATATTAGCCGGAGTCACCTAGTGCAG”: the binding signal is 17500 fluorescence intensity (a.u.). As for “GGAAATTGACTAATTAATATTAAGCTCTTGATTGTCAAAACGGAGTCACCTAGTGCAG”, the binding signal is 42600 fluorescence intensity (a.u.). Then “TTTAAAATGATAGGAATTCAATCCTTTATTTCAAAGGCATCGGAGTCACCTAGTGCAG”, with 5150 fluorescence intensity (a.u.). Take “ACAAATTTAACGATTTTATAATTATATAAAAGTTACATATCGGAGTCACCTAGTGCAG”: the binding signal is 11700 fluorescence intensity (a.u.).

Turning to “TTCCATACAAATCAATCGTTCAGTCATATAATCGTCGCATCGGAGTCACCTAGTGCAG”, the binding signal was 3560 fluorescence intensity (a.u.).

As to “ATTAATTATTAATTTACTTTTGACAATTACTAATTAGCCACGGAGTCACCTAGTGCAG”, the binding signal is 56700 fluorescence intensity (a.u.).

In the case of “CTCCCAATGTACATTAACAGGTAGTGACGGGATAGACGAACGGAGTCACCTAGTGCAG”, the binding signal is 6110 fluorescence intensity (a.u.).

For the sequence “GCAAATTGATATGCTAGCTGTAATCCACATATTTCAGTAGCGGAGTCACCTAGTGCAG”, the binding signal is 40200 fluorescence intensity (a.u.). For the sequence “CTTAACTGCTACGAGGGCTGAGATTCGCATTGAAACATTGCGGAGTCACCTAGTGCAG”, the binding signal is 8220 fluorescence intensity (a.u.). On to “AATGATTTCAGTGATGATAATATGTTGGGTTCTGGAAGCTCGGAGTCACCTAGTGCAG”, for which the binding signal was 15800 fluorescence intensity (a.u.). On to “TTGATTAAGTATGAATGATCCCTTTAGCGAATTCGGTAGCCGGAGTCACCTAGTGCAG”, for which the binding signal is 13500 fluorescence intensity (a.u.). Turning to “GTTGAGTGGATTGAATGGAGGGAGTGTTTCTGTTGTTGCACGGAGTCACCTAGTGCAG”, the binding signal was 24700 fluorescence intensity (a.u.). “TCTTGTCATCATTTGATTATTTCCTAAGCCCTGTTTCCTTCGGAGTCACCTAGTGCAG”: the binding signal is 6570 fluorescence intensity (a.u.). In the case of “TCTGATTTCTTCTTCAGTTCTGCTTCTTCCCATCCAAAGCCGGAGTCACCTAGTGCAG”, the binding signal is 9790 fluorescence intensity (a.u.). Turning to “ACAAATTTTATAAACCAAAATTTAAATACAAATTCTCTGACGGAGTCACCTAGTGCAG”, the binding signal was 4720 fluorescence intensity (a.u.). As to “TTCAAATAATTGTCATTAAATATTATTCATTCTTAAACTTCGGAGTCACCTAGTGCAG”, the binding signal was 7640 fluorescence intensity (a.u.). Turning to “AATATAACTATTTAAATTGCAAATAATTGGTGGACCTCACCGGAGTCACCTAGTGCAG”, the binding signal is 29100 fluorescence intensity (a.u.). Consider “CCACAATTCCCATTTCACACATTTCATTTGGGCCTCTAAACGGAGTCACCTAGTGCAG”, for which the binding signal was 47600 fluorescence intensity (a.u.). Consider “GTTTGCTAATTATAATATCACATAAATGCTATGTCGAAGGCGGAGTCACCTAGTGCAG”, for which the binding signal was 22000 fluorescence intensity (a.u.). “TGGCCAATTAATGTTTGTTAGACGGCATGTACGGATCAAACGGAGTCACCTAGTGCAG”: the binding signal was 15000 fluorescence intensity (a.u.).

Take “TAGTTAACAGATTCATCATCCAACCTTTTGCTTAATCATACGGAGTCACCTAGTGCAG”: the binding signal is 8300 fluorescence intensity (a.u.). The same measure for “AGACATTTTGCCAGATAATTGGCATGCATGCAGCCTACCACGGAGTCACCTAGTGCAG”: 7880 fluorescence intensity (a.u.); for “AAAGATTGAGAAATGGAAGACCTAGCTCAGGATTTGATGACGGAGTCACCTAGTGCAG”: 20500 fluorescence intensity (a.u.).

As to “GTATAAATTAGATGTTATCCATCGTCATAGCCATCGAAATCGGAGTCACCTAGTGCAG”, the binding signal is 13600 fluorescence intensity (a.u.). Turning to “GATAAAAGTTATTGATATTAATTTATAGTTGACATACACTCGGAGTCACCTAGTGCAG”, the binding signal was 15800 fluorescence intensity (a.u.).

Take “CTACATACTATTTAAATTTAAATTATCATAAACCATATTACGGAGTCACCTAGTGCAG”: the binding signal is 11300 fluorescence intensity (a.u.). The same measure for “TGGTGACAGAAGTAATTGTAGCTGAGTTCCACAAAGAAAACGGAGTCACCTAGTGCAG”: 7090 fluorescence intensity (a.u.); for “TTTAATTGCTGGACAATAACTTTTAAACTATATGTTCCTACGGAGTCACCTAGTGCAG”: 36300 fluorescence intensity (a.u.); for “GCGATTGCAATTAGCGCCGAGCCCTCTTTGTTTAGGTTTACGGAGTCACCTAGTGCAG”: 6570 fluorescence intensity (a.u.). As to “GAGAATTAATCCTAAATTTGCAATAAAGAAATTAGGGTAACGGAGTCACCTAGTGCAG”, the binding signal is 8720 fluorescence intensity (a.u.).

For the sequence “CTGACAGTGATGAGCGTTTCCCTGTGATCCTTTCCTTACGCGGAGTCACCTAGTGCAG”, the binding signal was 10500 fluorescence intensity (a.u.). On to “ATGATGAGATTGAGGTTGATATAGATAGCTTTGATGTTGACGGAGTCACCTAGTGCAG”, for which the binding signal was 23200 fluorescence intensity (a.u.).

On to “AGAAACAGTCATCACAGAATGACAGAAACATAAAGAGACACGGAGTCACCTAGTGCAG”, for which the binding signal was 5110 fluorescence intensity (a.u.).
